# Results taken from the supplement of paper PMC8728848.
# The other results are listed elsewhere or left out.
# B1: DC-ASGPR Long (Homo sapiens) (protein)
# chain: MTRTYENFQYLENKVKVQGFKNGPLPLQSLLQRLRSGPCHLLLSLGLGLLLLVIICVVGFQNSKFQRDLVTLRTDFSNFTSNTVAEIQALTSQGSSLEETIASLKAEVEGFKQERQAGVSELQEHTTQKAHLGHCPHCPSVCVPVHSEMLLRVQQLVQDLKKLTCQVATLNNNASTEGTCCPVNWVEHQDSCYWFSHSGMSWAEAEKYCQLKNAHLVVINSREEQNFVQKYLGSAYTWMGLSDPEGAWKWVDGTDYATGFQNWKPGQPDDWQGHGLGGGEDCAHFHPDGGWNDDVCQRPYHWVCEAGLGQTSQESH
# Key:
# Experiment in all cases: glycan array binding signal (z-score within array); higher = stronger binding
# Settings in all cases: glycan notation: IUPAC condensed, linker removed
# Fuc(a1-2)Gal = molecular target: Fuc(a1-2)Gal
# Method in brief: (§1)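 Columns mapping to the same glycan were averaged after glycan names were converted to IUPAC-condensed notation. The data come from 3228 arrays in the Consortium for Functional Glycomics database, limited to those with an available protein sequence. Binding is reported as a within-array Z-score averaged across arrays of one protein sequence and across linkers.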
# Fuc(a1-2)Gal(b1-3)GalNAc = molecular target: Fuc(a1-2)Gal(b1-3)GalNAc
# Method in brief: as §1
# [1] = molecular target: Fuc(a1-2)Gal(b1-3)GalNAc(a1-3)[Fuc(a1-2)]Gal(b1-4)Glc
# Method in brief: as §1
# [2] = molecular target: Fuc(a1-2)Gal(b1-3)GalNAc(a1-3)[Fuc(a1-2)]Gal(b1-4)GlcNAc
# Method in brief: as §1
# [3] = molecular target: Fuc(a1-2)Gal(b1-3)GalNAc(b1-3)Gal
# Method in brief: as §1
# [4] = molecular target: Fuc(a1-2)Gal(b1-3)GalNAc(b1-3)Gal(a1-4)Gal(b1-4)Glc
# Method in brief: as §1
# [5] = molecular target: Fuc(a1-2)Gal(b1-3)GalNAc(b1-4)[Neu5Ac(a2-3)]Gal(b1-4)Glc
# Method in brief: as §1
# Fuc(a1-2)Gal(b1-3)GlcNAc = molecular target: Fuc(a1-2)Gal(b1-3)GlcNAc
# Method in brief: as §1
# [6] = molecular target: Fuc(a1-2)Gal(b1-3)GlcNAc(b1-2)Man(a1-3)[Fuc(a1-2)Gal(b1-3)GlcNAc(b1-2)Man(a1-6)]Man(b1-4)GlcNAc(b1-4)GlcNAc
# Method in brief: as §1
# [7] = molecular target: Fuc(a1-2)Gal(b1-3)GlcNAc(b1-2)Man(a1-3)[Fuc(a1-2)Gal(b1-3)GlcNAc(b1-2)Man(a1-6)]Man(b1-4)GlcNAc(b1-4)[Fuc(a1-6)]GlcNAc
# Method in brief: as §1
# [8] = molecular target: Fuc(a1-2)Gal(b1-3)GlcNAc(b1-3)Gal(b1-4)Glc
# Method in brief: as §1
# [9] = molecular target: Fuc(a1-2)Gal(b1-3)GlcNAc(b1-3)GalNAc
# Method in brief: as §1
# [10] = molecular target: Fuc(a1-2)Gal(b1-3)GlcNAc(b1-3)[Fuc(a1-2)Gal(b1-3)GlcNAc(b1-6)]GalNAc
# Method in brief: as §1
# [11] = molecular target: Fuc(a1-2)Gal(b1-3)GlcNAc(b1-3)[Gal(b1-4)GlcNAc(b1-6)]Gal(b1-4)Glc
# Method in brief: as §1
# [12] = molecular target: Fuc(a1-2)Gal(b1-3)GlcNAc(b1-3)[Neu5Ac(a2-6)Gal(b1-4)GlcNAc(b1-6)]Gal(b1-4)Glc
# Method in brief: as §1
# [13] = molecular target: Fuc(a1-2)Gal(b1-3)GlcNAc6S
# Method in brief: as §1
# [14] = molecular target: Fuc(a1-2)Gal(b1-3)[Fuc(a1-4)]GlcNAc
# Method in brief: as §1
# [15] = molecular target: Fuc(a1-2)Gal(b1-3)[Fuc(a1-4)]GlcNAc(b1-2)Man(a1-3)[Fuc(a1-2)Gal(b1-3)[Fuc(a1-4)]GlcNAc(b1-2)Man(a1-3)]Man(b1-4)GlcNAc(b1-4)GlcNAc
# Method in brief: as §1
# [16] = molecular target: Fuc(a1-2)Gal(b1-3)[Fuc(a1-4)]GlcNAc(b1-2)Man(a1-3)[Fuc(a1-2)Gal(b1-3)[Fuc(a1-4)]GlcNAc(b1-2)Man(a1-6)]Man(b1-4)GlcNAc(b1-4)[Fuc(a1-6)]GlcNAc(b1-4)[Fuc(a1-6)]GlcNAc
# Method in brief: as §1
# [17] = molecular target: Fuc(a1-2)Gal(b1-3)[Fuc(a1-4)]GlcNAc(b1-3)[Fuc(a1-3)[Gal(b1-4)]GlcNAc(b1-6)]Gal(b1-4)Glc
# Method in brief: as §1
# [18] = molecular target: Fuc(a1-2)Gal(b1-3)[Fuc(a1-4)]GlcNAc(b1-3)[Gal(b1-4)GlcNAc(b1-6)]Gal(b1-4)Glc
# Method in brief: as §1
# [19] = molecular target: Fuc(a1-2)Gal(b1-4)Fuc(a1-3)]GlcNAc(b1-2)Man(a1-3)[Fuc(a1-2)Gal(b1-4)[Fuc(a1-3)]GlcNAc(b1-2)Man(a1-6)]Man(b1-4)GlcNAc(b1-4)GlcNAc
# Method in brief: as §1
# Fuc(a1-2)Gal(b1-4)Glc = molecular target: Fuc(a1-2)Gal(b1-4)Glc
# Method in brief: as §1
# Fuc(a1-2)Gal(b1-4)Glc6S = molecular target: Fuc(a1-2)Gal(b1-4)Glc6S
# Method in brief: as §1
# Fuc(a1-2)Gal(b1-4)GlcNAc = molecular target: Fuc(a1-2)Gal(b1-4)GlcNAc
# Method in brief: as §1
# [20] = molecular target: Fuc(a1-2)Gal(b1-4)GlcNAc(b1-2)Man
# Method in brief: as §1
# [21] = molecular target: Fuc(a1-2)Gal(b1-4)GlcNAc(b1-2)Man(a1-3)[Fuc(a1-2)Gal(b1-4)GlcNAc(b1-2)Man(a1-6)]Man(b1-4)GlcNAc(b1-4)GlcNAc
# Method in brief: as §1
# [22] = molecular target: Fuc(a1-2)Gal(b1-4)GlcNAc(b1-2)Man(a1-3)[Fuc(a1-2)Gal(b1-4)GlcNAc(b1-2)Man(a1-6)]Man(b1-4)GlcNAc(b1-4)[Fuc(a1-6)]GlcNAc
# Method in brief: as §1
# [23] = molecular target: Fuc(a1-2)Gal(b1-4)GlcNAc(b1-2)[Fuc(a1-2)Gal(b1-4)GlcNAc(b1-4)]Man(a1-3)[Fuc(a1-2)Gal(b1-4)GlcNAc(b1-2)Man(a1-6)]Man(b1-4)GlcNAc(b1-4)GlcNAc
# Method in brief: as §1
# [24] = molecular target: Fuc(a1-2)Gal(b1-4)GlcNAc(b1-3)Gal(b1-4)GlcNAc
# Method in brief: as §1
# [25] = molecular target: Fuc(a1-2)Gal(b1-4)GlcNAc(b1-3)Gal(b1-4)GlcNAc(b1-2)Man(a1-3)[Fuc(a1-2)Gal(b1-4)GlcNAc(b1-3)Gal(b1-4)GlcNAc(b1-2)Man(a1-6)]Man(b1-4)GlcNAc(b1-4)GlcNAc
# Method in brief: as §1
# [26] = molecular target: Fuc(a1-2)Gal(b1-4)GlcNAc(b1-3)Gal(b1-4)GlcNAc(b1-3)Gal(b1-4)GlcNAc
# Method in brief: as §1
# [27] = molecular target: Fuc(a1-2)Gal(b1-4)GlcNAc(b1-3)GalNAc
# Method in brief: as §1
# [28] = molecular target: Fuc(a1-2)Gal(b1-4)GlcNAc(b1-3)[Fuc(a1-2)Gal(b1-4)GlcNAc(b1-6)]GalNAc
# Method in brief: as §1
# [29] = molecular target: Fuc(a1-2)Gal(b1-4)GlcNAc(b1-3)[Fuc(a1-3)[Gal(b1-4)]GlcNAc(b1-6)]Gal(b1-4)Glc
# Method in brief: as §1
# [30] = molecular target: Fuc(a1-2)Gal(b1-4)GlcNAc(b1-6)GalNAc
# Method in brief: as §1
# [31] = molecular target: Fuc(a1-2)Gal(b1-4)GlcNAc6S
# Method in brief: as §1
binder,measurement,setting,value
B1,glycan array binding signal (z-score),Fuc(a1-2)Gal,-0.246
same,glycan array binding signal (z-score),Fuc(a1-2)Gal(b1-3)GalNAc,-0.268
same,glycan array binding signal (z-score),[1],-0.45
same,glycan array binding signal (z-score),[2],-0.467
same,glycan array binding signal (z-score),[3],-0.358
same,glycan array binding signal (z-score),[4],-0.018
same,glycan array binding signal (z-score),[5],0.292
same,glycan array binding signal (z-score),Fuc(a1-2)Gal(b1-3)GlcNAc,-0.309
same,glycan array binding signal (z-score),[6],-1.26
same,glycan array binding signal (z-score),[7],-0.382
same,glycan array binding signal (z-score),[8],-0.336
same,glycan array binding signal (z-score),[9],-0.278
same,glycan array binding signal (z-score),[10],-0.391
same,glycan array binding signal (z-score),[11],-0.124
same,glycan array binding signal (z-score),[12],-0.294
same,glycan array binding signal (z-score),[13],0.23
same,glycan array binding signal (z-score),[14],-0.302
same,glycan array binding signal (z-score),[15],0.138
same,glycan array binding signal (z-score),[16],0.45
same,glycan array binding signal (z-score),[17],-0.381
same,glycan array binding signal (z-score),[18],-0.417
same,glycan array binding signal (z-score),[19],0.217
same,glycan array binding signal (z-score),Fuc(a1-2)Gal(b1-4)Glc,-0.229
same,glycan array binding signal (z-score),Fuc(a1-2)Gal(b1-4)Glc6S,0.033
same,glycan array binding signal (z-score),Fuc(a1-2)Gal(b1-4)GlcNAc,-0.356
same,glycan array binding signal (z-score),[20],-0.358
same,glycan array binding signal (z-score),[21],-0.517
same,glycan array binding signal (z-score),[22],-0.23
same,glycan array binding signal (z-score),[23],1.48
same,glycan array binding signal (z-score),[24],0.657
same,glycan array binding signal (z-score),[25],0.075
same,glycan array binding signal (z-score),[26],-0.571
same,glycan array binding signal (z-score),[27],-0.265
same,glycan array binding signal (z-score),[28],-0.108
same,glycan array binding signal (z-score),[29],-0.219
same,glycan array binding signal (z-score),[30],1.92
same,glycan array binding signal (z-score),[31],-0.271
